Test results taken from article PMC6919601, “Identification of Plasmodium dipeptidyl aminopeptidase allosteric inhibitors by high throughput screening” (PLoS ONE, 2019).
Screen size: about 110,000 compounds; about 230 (0.21%) showed an effect of 50% or more. Some of the results follow.

target: DPAP1 (Plasmodium falciparum, UniProt Q8IIJ9); assay: primary screen, percent inhibition; read by cleavage of a fluorogenic dipeptide substrate; higher = more effect of the substance; parameters: species or system P. falciparum D10 trophozoite lysates; single well
Sequence (Q8IIJ9 whole entry, looked up): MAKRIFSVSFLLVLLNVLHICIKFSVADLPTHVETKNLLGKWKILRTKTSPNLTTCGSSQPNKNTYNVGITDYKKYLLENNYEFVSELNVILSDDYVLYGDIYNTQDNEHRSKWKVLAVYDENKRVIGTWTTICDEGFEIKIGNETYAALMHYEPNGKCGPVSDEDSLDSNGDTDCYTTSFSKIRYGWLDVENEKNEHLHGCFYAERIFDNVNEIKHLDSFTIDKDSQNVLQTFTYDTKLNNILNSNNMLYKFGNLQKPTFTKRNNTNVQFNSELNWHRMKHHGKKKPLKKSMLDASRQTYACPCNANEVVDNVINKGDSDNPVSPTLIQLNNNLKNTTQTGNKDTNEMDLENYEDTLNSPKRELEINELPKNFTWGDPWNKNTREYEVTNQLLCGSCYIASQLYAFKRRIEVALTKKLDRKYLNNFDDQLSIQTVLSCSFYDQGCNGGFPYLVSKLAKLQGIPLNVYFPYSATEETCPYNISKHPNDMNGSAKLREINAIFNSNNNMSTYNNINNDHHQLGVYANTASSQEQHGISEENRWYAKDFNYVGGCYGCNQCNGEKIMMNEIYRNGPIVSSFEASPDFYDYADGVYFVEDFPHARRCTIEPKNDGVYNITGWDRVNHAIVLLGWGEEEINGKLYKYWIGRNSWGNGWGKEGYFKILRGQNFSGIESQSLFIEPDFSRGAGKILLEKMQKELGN
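Note: 30 min substrate incubation versus DMSO and 10 µM JCP410 controls.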

| SMILES | % Inhibition @ 10 uM |
| --- | --- |
| CC1(C)CC(O)=C/C(=N/Cc2ccc(C(=O)O)cc2)C1 | 0.317% |
| CC(C)CN1C(=O)c2ccccc2C(C(=O)N(CCN(C)C)Cc2ccccc2)C1c1cccs1 (stereo not shown) | -4.37% |
| N#CC1=C(N)Oc2[nH]nc(-c3cccs3)c2C1c1c(F)cccc1Cl (stereo not shown) | -4.43% |
| COc1cc(/C=C2\SC(=O)N(CC(=O)Nc3ccc(C)cc3)C2=O)cc(Br)c1O | -2.11% |
| Cc1ccc(Cl)cc1NC(=O)C1CC(=O)N(c2ccc(Cl)cc2)C1 (stereo not shown) | -6.67% |
| CNC(=O)c1ccc2c(c1SC)C(=O)c1ccccc1C2=O | 2.18% |
| Cn1c(-c2cccs2)c(C=O)c2ccccc21 | -5.37% |
| CC1(C)CC(NC(=O)C(F)(F)F)CC(C)(CNC(=O)C(F)(F)F)C1 (stereo not shown) | -12.3% |
| CC1CC(C)CN(C(=O)Cc2cccc3ccccc23)C1 (stereo not shown) | -1.46% |
| Cc1c2cnn(CC(=O)N(C)Cc3ccccc3)c(=O)c2c(C)n1Cc1ccccc1F | -3.96% |
| NC(=O)c1c(-c2ccccc2)csc1NC(=O)C1CC1c1ccccc1 (stereo not shown) | 7.62% |
| O=C(NCCc1ccccc1)c1nnc(CS(=O)(=O)c2ccccc2)o1 | 0.91% |
| CCc1nnc(NC(=O)c2cc(=O)c3ccc(C)c(C)c3o2)s1 | -1.47% |
| C=CCN1C(=O)NC(=O)/C(=C/c2ccc(-c3ccc(Cl)c(C(=O)O)c3)o2)C1=O | 6.42% |
| CCS(=O)(=O)C1=NSC2=NC(=O)/C(=C\c3cc(C)n(-c4ccccc4F)c3C)C(=N)N21 | 5.06% |
| CN(Cc1ccccc1)C(=O)c1cccnc1 | 1.38% |
| CC/N=c1\c(NS(=O)(=O)CC)c(O)oc2ccccc12 | 1.49% |
| CCOc1ccc(CCNCc2c(C(=O)O)n(Cc3ccc(OC)cc3)c3cc(OC)ccc23)cc1 | 3.64% |
| O=C(c1ccc(Cl)cc1)N1CCCN(C(=O)c2ccc(Cl)cc2)CC1 | 3.79% |
| CCO/C(O)=C1\C(C)=NC2=C(C(=O)CC(C)(C)C2)C1c1ccc(Cl)cc1Cl (stereo not shown) | -1.03% |
| O=C(Cc1ccccc1)NCCCc1nc2ccccc2n1Cc1ccccc1 | 4.11% |
| Cc1ccc(-c2csc(C3C(N)=NC(S)=C(C#N)C34CCCCC4)n2)cc1 (stereo not shown) | 89.8% |
| CCc1ccc(NC(=O)C2CC(C)=C(C)CC2C(=O)O)cc1 (stereo not shown) | -6.02% |
| O=C(CN1C(=O)c2cccc3cccc1c23)NCCSCc1ccco1 | 2.65% |
| Cc1nc(CC(=O)Nc2nnc(C3CCCO3)s2)cs1 (stereo not shown) | -2.71% |

| SMILES | % Inhibition @ 10 uM |
| --- | --- |
| CCOc1ccccc1C(=O)Nc1ccc(CC)cc1 | -5.82% |
| COc1ccc(Cn2c(=O)c3cccnc3n(Cc3ccc(C#N)cc3)c2=O)cc1 | 0.0579% |
| COc1ccc(CC(=O)Nc2ncc(Cc3cccc4ccccc34)s2)cc1 | 0.484% |
| CCSc1nnc(NC(=O)CSc2nnc(Cc3cccn3C)n2C)s1 | 1.94% |
| CCOC(=O)N1CCN(C(=O)CCc2c(C)nc3c(c2C)c(=O)n(C)c(=O)n3C)CC1 | 2.12% |
| O=C(COc1ccccc1)n1nc(-c2ccccc2)nc1NCc1ccc(F)cc1 | -6.71% |
| Cc1cc(C)c(C(=O)c2ccc(C(=O)N3CCOCC3)cc2)c(C)c1 | 1.41% |
| CC1(C)CC2=Nc3ccc4ccccc4c3C(c3cccnc3)C2=C(O)C1 (stereo not shown) | -4.03% |
| COCCNC(=O)c1ccc2c(c1)ncn2-c1cc(C)cc(C)c1 | 3.04% |
| CNC(=O)Cn1ncc2c(C)n(Cc3ccccc3F)c(C)c2c1=O | 2.84% |
| Oc1ccc(/C=C/c2nc3ccccc3s2)cc1 | -1.22% |
| O=C(CN1C(=O)S/C(=C/c2ccc(O)cc2)C1=O)Nc1cccc2ccccc12 | -1.91% |
| CC(=O)NCCNc1nc2c(-c3cccc(Br)c3)nnn2c2ccccc12 | -1.21% |
| COc1ccc(CNCc2ccccc2C(F)(F)F)cc1OC | -2.22% |
| CCOc1ccc(NC(=O)c2cccc(C)c2)cc1 | 4.6% |
| O=C(O)c1ccccc1C(=O)N1CCC(O)(c2ccc(Cl)cc2)CC1 | -0.318% |
| COc1cc(OC)cc(-c2cc3nc(C4CCN(C(=O)OC(C)(C)C)CC4)cc(O)n3n2)c1 | 0.708% |
| CCN1C2=C(C(=O)CCC2)C(c2cccc(O)c2)C2=C1CCCC2=O | 3.47% |
| CCCOc1ccc(C2C(C#N)=C(N)Oc3[nH]nc(C)c32)cc1OCC (stereo not shown) | -0.941% |
| N#CC1(NC(=O)[C@H](Cc2c(F)cccc2F)NC(=O)c2ccc(-c3ccccc3Cl)cc2)CCOCC1 | -0.207% |
| COc1cc(C=C2C(=O)OC(C)(C(C)(C)C)OC2=O)ccc1O (stereo not shown) | 0.275% |
| O=C(O)c1ccccc1/C(=N/O)c1ccc2c(c1)Cc1ccccc1-2 | 12.6% |
| Cn1nc(C(=O)N2CCc3ccccc3C2)c2c1-c1ccccc1SC2 | 26.4% |
| O=c1/c(=C/C=C/c2ccccc2)sc2nc(-c3cccs3)nn12 | -9.16% |
